Reference: PubChem BioAssay AID504332 (National Center for Advancing Translational Sciences (NCATS), 2011)
Several values for one entry are separate records, joined by “and”; a condition that tells them apart may be missing. Equal values may be shown once. About 31,000 (8.9%) of roughly 350,000 compounds were called active. The inconclusive results got no clear call from the source; some entries with a clear call stand among them for comparison. Calls follow the shape of the dose curve; as a rule, active = well fitted inhibition curve with a large enough effect; inconclusive = small, poorly fitted or top-dose-only effect; inactive = no such curve, though single readings can be large or run the other way. Where the call is inconclusive, the potency comes from a doubtful curve fit. More than one record can exist for a structure, and the calls need not agree.

target: Histone-lysine N-methyltransferase EHMT2 (Homo sapiens) (UniProt Q96KQ7); experiment: qHTS Assay for Inhibitors of Histone Lysine Methyltransferase G9a; details: G9a H3K9 monomethylation, AlphaScreen, 2 h; activity, negative = inhibition: at 59 µM (top of the series) unless noted; also: nearly all actives have a fitted effect of over 75% in size
How it was run: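 G9a (20 nM) preincubated 15 min RT with compounds, then 500 nM biotinylated H3K9 peptide and 20 uM SAM added; 2 h RT reaction. Monomethyl-H3K9 product detected by AlphaScreen with anti-H3K9me1 antibody, streptavidin donor and anti-rabbit IgG acceptor beads.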
% is scaled to controls: 0 for no effect and ±100 for the full control effect; potency is read from the fitted curve at half-maximal effect; tags tell the direction and shape of the fitted curve.

UniProt Q96KQ7, sequence (Q96KQ7 whole entry, looked up): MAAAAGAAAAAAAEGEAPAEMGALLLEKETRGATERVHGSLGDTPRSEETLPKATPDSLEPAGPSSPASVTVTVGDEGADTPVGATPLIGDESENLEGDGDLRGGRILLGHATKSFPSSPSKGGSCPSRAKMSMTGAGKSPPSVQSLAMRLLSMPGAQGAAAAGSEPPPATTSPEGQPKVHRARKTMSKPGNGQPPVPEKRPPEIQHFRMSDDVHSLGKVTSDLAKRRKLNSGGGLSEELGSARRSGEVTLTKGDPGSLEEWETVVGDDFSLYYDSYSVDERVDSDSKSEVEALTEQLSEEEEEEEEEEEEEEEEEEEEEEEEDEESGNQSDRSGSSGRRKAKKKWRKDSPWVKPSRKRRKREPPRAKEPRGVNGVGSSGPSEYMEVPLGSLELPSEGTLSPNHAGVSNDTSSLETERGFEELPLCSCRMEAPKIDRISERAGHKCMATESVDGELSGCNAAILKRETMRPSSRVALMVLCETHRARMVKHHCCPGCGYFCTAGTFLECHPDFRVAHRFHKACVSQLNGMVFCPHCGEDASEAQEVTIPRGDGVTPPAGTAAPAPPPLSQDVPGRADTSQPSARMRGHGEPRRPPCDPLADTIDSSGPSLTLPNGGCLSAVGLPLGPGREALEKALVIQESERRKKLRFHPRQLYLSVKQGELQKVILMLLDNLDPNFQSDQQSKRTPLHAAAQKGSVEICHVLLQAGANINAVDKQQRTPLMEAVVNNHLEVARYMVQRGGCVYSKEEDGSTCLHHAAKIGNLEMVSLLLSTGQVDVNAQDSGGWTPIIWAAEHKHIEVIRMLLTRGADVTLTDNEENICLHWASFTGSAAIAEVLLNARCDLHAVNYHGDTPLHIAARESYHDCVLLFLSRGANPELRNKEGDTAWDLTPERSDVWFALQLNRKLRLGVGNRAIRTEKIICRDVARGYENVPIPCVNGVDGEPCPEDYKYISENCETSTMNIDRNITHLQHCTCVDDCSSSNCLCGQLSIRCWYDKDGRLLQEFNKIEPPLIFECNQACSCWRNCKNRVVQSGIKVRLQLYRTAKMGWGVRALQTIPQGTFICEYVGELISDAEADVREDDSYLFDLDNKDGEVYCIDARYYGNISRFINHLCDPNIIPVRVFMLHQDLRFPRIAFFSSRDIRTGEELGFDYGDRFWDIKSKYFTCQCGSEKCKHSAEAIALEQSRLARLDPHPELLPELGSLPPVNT

Structure (SMILES)	Potency	activity, negative = inhibition
CC1CCCC(C)N1C(=O)COC(=O)CCc1nc2ccccc2c(=O)[nH]1 (centres undefined)	inconclusive: 1.12 µM [inhibitor, full curve]	
CCCCN1C(C(=O)c2ccccc2)=C(OC(=O)CC)c2ccccc2S1(=O)=O		inactive: -33.1%
O=C(c1ccc2c(c1)OCO2)n1nnc2ccccc21	active: 44.7 µM	
Cc1cc(C)c(NC(=O)Cn2nnc3sc4c(c3c2=O)CCC(C(C)(C)C)C4)c(C)c1 (centres undefined)		inactive: -6.92%
Oc1ccc2nnc3c(Br)cnn3c2c1	inconclusive: 89.1 µM [inhibitor, single point]	
CCCn1c(SCC(=O)NCc2ccccc2)n[nH]c1=O		inactive: 5.29% [at 102 µM]
COc1ccc2c(c1)c(=O)oc1cc(OCC(=O)NC3CCCCC3)ccc12	active: 11.2 µM	
COc1cccc(CNC(=O)C2CCCN(c3nn4cc(-c5ccc(C)cc5)nc4s3)C2)c1 (centres undefined)		inactive: -1.25%
COc1ccc(-c2csc(Nc3cccc(C)n3)n2)cc1		inactive: -13.6% [at 102 µM]
Cc1nc2nc(SCC(=O)NCCCN3CCCC3)nn2c(C)c1Cc1ccccc1Cl	active: 79.4 µM	
COc1ccc(NC(=O)COc2ccc(-c3ccccc3)cc2)cc1	inconclusive: 7.94 µM [inhibitor, full curve]	
c1ccc(NC2=NCCN2CCCC2CCCC2)cc1		inactive: 6.59% [at 2.33 µM]
CN1CCc2c(sc3nc(SCC(N)=O)n(-c4ccccc4)c(=O)c23)C1		inconclusive: -68.3% [inhibitor]
CCOC(=O)c1sc(NC(=O)CCN2C(=O)c3ccccc3C2=O)c(C(=O)OCC)c1C	inconclusive: 1 µM [inhibitor, full curve, poor fit]	
CC1CCCN(C(=O)c2ccc(CSc3nc4ccncc4n3Cc3ccccc3)cc2)C1 (centres undefined)	inconclusive: 11.2 µM [inhibitor, partial curve, poor fit]	
Cc1cc2ccccc2n1CCNC(=O)c1cccs1	active: 35.5 µM	
C=C(C)COc1ccc(-c2[nH]ncc2-c2ccc(OC)c(OC)c2)c(O)c1	inconclusive: 50.1 µM [inhibitor, partial curve, poor fit]	
Cc1ccc2nc(N/N=C\c3ccc([N+](=O)[O-])o3)nc(-c3ccccc3)c2c1		inactive: -8.55% [at 102 µM]
O=C1CCCC/C1=C/Nc1ccc(C(=O)O)cc1	inconclusive: 22.4 µM [inhibitor, single point]	
CN1CCN(CCCNC(=O)c2cn(C3CCCCC3)c(=O)c3c2c2ccccc2n3C)CC1	inconclusive: 79.4 µM [inhibitor, single point]	
COc1ccc(Cc2nnc(NC(=O)c3c(-c4ccccc4)noc3C)s2)cc1OC	active: 39.8 µM	
CCc1cc2c(=O)[nH]c(Cc3ccc(Cl)cc3)nc2s1	inconclusive: 28.2 µM [inhibitor, single point]	
CC(C)(C)NC(=O)Cn1cc(S(=O)(=O)Cc2ccccc2Cl)c2ccccc21		inactive: 2.07%
CCCCn1c(N)c(N(CCC(C)C)C(=O)Cc2ccc(S(=O)(=O)N3CCOCC3)s2)c(=O)[nH]c1=O	inconclusive: 39.8 µM [inhibitor, partial curve, poor fit]	
Cn1c(=O)c2c(nc(Sc3ncccn3)n2Cc2ccc(Cl)cc2)n(C)c1=O	inconclusive: 89.1 µM [inhibitor, single point]	

Structure (SMILES)	Potency	activity, negative = inhibition
Cc1ccc(N(CC(=O)NN=C2CCN(C)CC2)S(=O)(=O)c2ccccc2)c(C)c1		inactive: 39.3%
CCOc1ccc2nc(SCC(=O)c3ccc(Cl)s3)sc2c1	inconclusive: 25.1 µM [inhibitor, partial curve, poor fit]	
Cc1onc(-c2c(F)cccc2Cl)c1C(=O)Nc1cccc(S(=O)(=O)NC2=NCCC2)c1		inactive: -13.5% [at 102 µM]
CC(C)(C)S(=O)(=O)/C(C#N)=N/Nc1ccc(Cl)cc1	active: 35.5 µM	
Cc1cc(C)n(-c2ccc(C(=O)OCC(=O)N(CC(C)C)C3CCS(=O)(=O)C3)cc2)n1 (centres undefined)		inactive: -44.3% [at 12.7 µM]
CCCC(=O)Nc1ccc(Cl)c(NC(=S)NC(=O)c2ccco2)c1	active: 50.1 µM	
CN1CCN(c2ccccc2NC(=O)c2ccc(N3CCOCC3)c([N+](=O)[O-])c2)CC1	inconclusive: 79.4 µM [inhibitor, single point]	
COc1ccc2cc3c(N)c(C(=O)N4CCCC4)sc3nc2c1	inconclusive: 2.51 µM [inhibitor, partial curve, poor fit]	
CCCOC(=O)c1c(NC(=O)CCC(=O)O)sc2c1CCCCC2	active: 50.1 µM	
CC1CC(C)CN(CCC(=O)Nc2ccc(Br)cc2)C1 (centres undefined)	inconclusive: 89.1 µM [inhibitor, single point]	
Cc1ccc(C(N)=S)c(C)c1	inconclusive: 89.1 µM [inhibitor, single point]	
O=C(NCc1ccc(F)cc1)c1ccc(S(=O)(=O)N2CCCCC2)cc1		inactive: 19.7% [at 12.7 µM]
CC(CC(=O)N1CCN(c2ccccc2F)CC1)c1ccccc1 (centres undefined)	inconclusive: 0.282 µM [inhibitor, full curve, poor fit]	
COCCCNS(=O)(=O)c1ccc(Oc2ncc(C(F)(F)F)cc2Cl)cc1		inactive: -1.88%
Cc1ccc(N(C)S(=O)(=O)c2nnc(NC(=O)c3ccco3)s2)cc1	inactive and active: 3.98 µM	
O=C(CSc1ncccc1C(=O)O)NC1CCCCCCC1		inactive: -33.7% [at 102 µM]
O=C(Nc1cc(C(F)(F)F)ccc1N1CCOCC1)c1ccc(Br)o1		inactive: 9.54%
O=C(CSc1nc(=O)n2ccccc2n1)Nc1cccc2ccccc12	active: 50.1 µM	
CCCCNC(=O)CN1CCN(c2ccc(NC(=O)c3ccc(OC)cc3)cc2C(=O)O)CC1		inactive: -3.6%
COc1ccc(Nc2ncnc3c2c(C)c(C)n3CCO)cc1		inactive: -45.6% [at 102 µM]
O=C(Nc1ccc(C(=O)N2CCCC2)cc1)c1ccc(F)cc1Cl	inconclusive: 89.1 µM [inhibitor, partial curve, poor fit]	
CC(=O)NC1C(=O)N=C(SCC(=O)NCc2ccccc2)NC1=O (centres undefined)	inconclusive: 39.8 µM [inhibitor, single point]	
Cc1ccc(N=Nc2ccc(O)c3ncccc23)cc1C	inconclusive: 50.1 µM [inhibitor, partial curve, poor fit]	
COc1ccc(-n2cc(CNCc3cccnc3)c(-c3cccc(F)c3)n2)cc1		inactive: -1.16% [at 12.7 µM]
Cc1c(C)n(C)c2ccc(C(=O)NCCCN3CCCC3)cc12	active: 50.1 µM	

Structure (SMILES)	Potency	activity, negative = inhibition
CCc1ccc(C2c3c(-c4cc(C)ccc4O)n[nH]c3C(=O)N2CCO)cc1 (centres undefined)		inactive: 8.21%
C/C(=C\c1ccccc1)C(=O)N1CCN(c2cccc(C(F)(F)F)c2)CC1	inconclusive: 39.8 µM [inhibitor, single point]	
O=[N+]([O-])c1cc(Br)cc(/C=N/n2cnnc2)c1O	active: 31.6 µM	
CCOC(=O)c1c(C)c(-c2ccccc2)n(CC(=O)N2CCN(C)CC2)c1C	active: 70.8 µM	
Cc1ccccc1-n1c(SC2CCOC2=O)nnc1-c1ccncc1 (centres undefined)	inconclusive: 25.1 µM [inhibitor, partial curve, poor fit]	
O=C(COC(=O)c1ccccc1)NCc1ccco1		inactive: -5%
COc1ccccc1N(CC(O)Cn1c(C)nc2ccccc21)S(=O)(=O)c1ccccc1 (centres undefined)		inactive: 19.1%
O=C1/C(=C/c2cccs2)SC(=S)N1N1CCOCC1	inconclusive: 3.98 µM [inhibitor, partial curve, poor fit]	
CC(=O)Oc1cccc(Nc2ncnc3ccccc23)c1	inconclusive: 50.1 µM [inhibitor, partial curve, poor fit]	
N#CC1=C2SCN(c3ccccc3)CN2C(=O)CC1c1ccccc1Cl (centres undefined)	active: 1.41 µM	
CC1=C(c2ccc(C(C)C)cc2)S(=O)(=O)NC1=NCc1ccc(OC(C)C)cc1		inactive: -38.1%
O=C(O)c1nn(Cc2ncc(-c3cccc(Cl)c3)o2)c(=O)c2ccccc12	active: 39.8 µM	
c1csc(-c2nn3c(Cn4nnc5ccccc54)nnc3s2)c1	inconclusive: 56.2 µM [inhibitor, partial curve, poor fit]	
COc1ccc(OCC(=O)Nc2cc(C)c(Cl)cc2OC)c([N+](=O)[O-])c1		inactive: -4.05%
C#CCOCCOCCOCCNc1nc(N2CCOCC2)nc(N2CCN(C(=O)[C@H](Cc3ccc(O)cc3)n3cc([C@@H](N)CC(C)C)nn3)CC2)n1		inconclusive: -61.6% [inhibitor]
CCSc1nc2sc3c(c2c(=O)n1-c1ccc(OC)cc1)CCN(C)C3	inconclusive: 39.8 µM [inhibitor, partial curve]	
CC(C)COC(=O)c1cc(-c2ccc(/C=N/n3cnnc3)o2)ccc1Cl	active: 10 µM	
O=C(/C=C/c1ccco1)Nc1ccc(C(=O)N2CCOCC2)cc1	inconclusive: 22.4 µM [inhibitor, single point]	
CN(C)c1ccc(/C=N/NC(=O)C(O)(c2ccccc2)c2ccccc2)o1	active: 7.94 µM	
Cc1[nH]c2ccccc2c1C(=O)C(C)Sc1nnc(C2CC2)o1 (centres undefined)	inconclusive: 31.6 µM [inhibitor, single point]	
C#CCOc1c(Cl)cc(C2C3=C(CCCC3=O)N(CC(=O)O)C3=C2C(=O)CCC3)cc1OC	inconclusive: 79.4 µM [inhibitor, single point]	
N#Cc1c(SCC(=O)Nc2nncs2)sc2c(O)cc(=O)[nH]c12	inconclusive: 3.55 µM [inhibitor, full curve, poor fit]	
C=CCn1c(SCC(=O)c2ccc(O)c(O)c2)nnc1-c1ccc(C)cc1		inactive: -1.73% [at 0.501 µM]
N#Cc1nc(-c2cccc3ccccc23)oc1N1CCCCC1		inactive: -36%
